Some of the results follow. One pool of 16,384 single-stranded DNAs met each Rep nickase domain in vitro (1 h at 37 °C, 3 µM enzyme); the outer parts of the 90-letter strands are left off. Uncut reads are compared with the no-enzyme pool on a log2 scale; uncut sequences lie near 0, cut ones below; no hit call is given. Reads are scaled to the total; values above 0 arise when much of the pool is cut.

The results in this text go back to the supplement of paper PMC7826260.

This test relates to T1, Rep nickase domain of tomato golden mosaic virus.
T1 sequence (protein, residues 1-124, tag omitted): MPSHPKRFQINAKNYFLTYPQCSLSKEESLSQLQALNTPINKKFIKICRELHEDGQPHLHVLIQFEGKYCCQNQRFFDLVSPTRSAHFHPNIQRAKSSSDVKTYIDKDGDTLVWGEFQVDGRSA
The experiment in a line: uncleaved DNA left, log2 of reads against the no-enzyme library (log2 ratio); higher = less cleavage (more negative = more Rep cleavage of the k-mer); sequences stand for … in CTCGTCCG…ACCGGAGA
How it is done:
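A pool of 90-nt single-stranded DNAs with seven random bases just before the constant AC of the nick site (name = the seven bases) was cut by 3 µM recombinant His6-SUMO-tagged Rep nickase domain (300 nM DNA, 50 mM HEPES pH 8.0, 50 mM NaCl, 1 mM MnCl2, 1 h, 37 °C, three replicates). Uncut DNA was amplified and sequenced.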
For AGCGCCT, the “uncleaved DNA left (log2)” value is -0.03.
Then CGTGATG, with 0.0751; and ACCAACC, with 0.059; and TAAATTT, with -4.26.
With ACTATAA the figure was -0.0295; with TCTTAAC, 0.103; with GGTTCCG, 0.00171.
As for CTCGATA, the “uncleaved DNA left (log2)” value was -0.0737.
Then ACGTGAT, with 0.137; and ACGGCCT, with 0.0292; and TGCACTG, with -0.0379.
With CTAGAGG the figure was 0.246.
Take TTCTATA: the “uncleaved DNA left (log2)” value was -0.0951.
Consider GCTTCAC, for which the “uncleaved DNA left (log2)” value is -0.0137.
Then CTATTTA, with 0.00185; and ACTACCT, with -0.0948.
With CCACCAA the figure was -0.0608.
With TTGTGCT the figure was -0.376; with GAAGCAC, 0.121.
With TTAGCAG, the “uncleaved DNA left (log2)” value was 0.0618.
Then TCTAGGC, with -0.0182; and TGCGTTA, with 0.125.
For TCACCTG, the “uncleaved DNA left (log2)” value was -0.155.
With CCGTTGG the figure was -0.0251; with CTTGTGA, -0.128; with ACATTCA, 0.0649.
For CAAATAC, the “uncleaved DNA left (log2)” value is -0.00289.
Then GTCGAAA, with 0.182.
With AACTTGG the figure was -0.0165; with GCTGTTC, -0.0378; with TACTGGA, -0.0238.
With GAAGTCG the figure was 0.0596; with CGTTCCC, -0.0646; with TGTTGTT, -0.173.
GGCCGGC: the “uncleaved DNA left (log2)” value amounted to 0.0203.
Then GGTGCGA, with -0.2.
With AGCGTTA the figure was 0.0421; with CGTCGAC, -0.0597; with TCTGCAT, -0.156.
Then TACCATG, with -0.094.
